In the supplement of paper PMC9446081:
About 220 (0.56%) of roughly 39,000 compounds showed activity. Some of the results follow.

System: Escherichia coli K-12 BW25113
Test: relative growth (OD600 normalised to plate interquartile mean) (fraction); higher = less growth inhibition, active = 0.2 or less
Settings: 50 µM; LB; incubation time: overnight (16-24 h)
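Further: static incubation at 37 °C against the wild-type strain, values averaged over two biological replicates.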

| Compound | relative growth |
| --- | --- |
| CC(=O)O[C@H]1CC[C@]2(C)[C@H]3CC[C@H]4[C@H]5CC(C)(C)CC[C@]5(C(=O)O)CC[C@@]4(C)[C@]3(C)CC[C@H]2C1(C)C | inactive: 0.992 |
| CN1CCN(CCO)CC1 | inactive: 0.999 |
| C[C@@H]1CN([C@@H](C)CO)C(=O)Cc2cc(NC(=O)Nc3ccccc3)ccc2O[C@H]1CN(C)S(=O)(=O)c1cn(C)cn1 | inactive: 1.02 |
| Cn1c(=O)oc2cc(S(=O)(=O)N3CCC[C@H](C(=O)NN4CCOCC4)C3)ccc21 | inactive: 0.99 |
| C[C@@H]1CN([C@H](C)CO)C(=O)c2cccc(NS(=O)(=O)c3ccccc3)c2O[C@@H]1CN(C)S(=O)(=O)c1ccc(F)cc1 | inactive: 0.981 |
| C[C@@H]1CN([C@@H](C)CO)C(=O)c2cc(NS(C)(=O)=O)ccc2O[C@@H](C)CCCCO[C@H]1CN(C)C(=O)c1ccncc1 | inactive: 0.845 |
| COC(=O)[C@H]1N=C(c2ccc(OCCCOC(=O)NCCCCCC(=O)NO)cc2)O[C@H]1c1ccccc1 | inactive: 1.03 |
| C[C@@H]1CN([C@H](C)CO)C(=O)Cc2cc(NC(=O)NC3CCCCC3)ccc2O[C@H]1CN(C)Cc1ccc(Cl)c(Cl)c1 | inactive: 1.01 |
| O=C(C[C@H]1C=C[C@@H](NS(=O)(=O)c2ccc(F)cc2)[C@H](CO)O1)NCCN1CCCCC1 | inactive: 0.999 |
| C[C@H]1CN([C@@H](C)CO)C(=O)c2cc(-c3cccc(C#N)c3)cnc2O[C@H]1CN(C)C(=O)C1CCOCC1 | inactive: 1.03 |
| NC(=O)C[n+]1cccc2ccccc21 | inactive: 0.999 |
| COc1ccc(S(=O)(=O)Nc2ccc3c(c2)C(=O)N([C@H](C)CO)C[C@@H](C)[C@@H](CN(C)Cc2ccc(C(F)(F)F)cc2)OCCCC[C@@H](C)O3)cc1 | inactive: 1.07 |
| C[C@H](CO)N1C[C@H](C)[C@@H](CN(C)Cc2ccc(Cl)c(Cl)c2)OCCCC[C@H](C)Oc2ccc(NC(=O)Nc3cccc4ccccc34)cc2C1=O | inactive: 1.04 |
| C[C@H]1CCCCO[C@H](CN(C)S(=O)(=O)c2cccs2)[C@@H](C)CN([C@@H](C)CO)C(=O)c2cc(NC(=O)Nc3ccc(C(F)(F)F)cc3)ccc2O1 | inactive: 1.03 |
| CCS(=O)(=O)N1CC[C@]2(CC1)CN(CC1CCOCC1)[C@H](CO)c1c2c2ccc(cc2n1C)OC | inactive: 0.98 |
| COc1ccc(NC(=O)N(C)C[C@H]2OCCCC[C@@H](C)Oc3ccc(NS(=O)(=O)c4cccs4)cc3C(=O)N([C@@H](C)CO)C[C@H]2C)cc1 | inactive: 1.02 |
| CN1CCN(C(=O)C[C@H]2CC[C@@H]3[C@H](COC[C@H](O)CN3S(=O)(=O)c3cccc(F)c3)O2)CC1 | inactive: 0.994 |
| C[C@H]1CCCCO[C@H](CN(C)S(=O)(=O)c2cn(C)cn2)[C@@H](C)CN([C@@H](C)CO)C(=O)c2cc(N(C)C)ccc2O1 | inactive: 0.999 |
| C[C@H]1CCCCO[C@@H](CN(C)Cc2ccc(C(F)(F)F)cc2)[C@@H](C)CN([C@@H](C)CO)C(=O)c2cc(N(C)C)ccc2O1 | inactive: 0.972 |

| Compound | relative growth |
| --- | --- |
| Cc1cc(=O)[n+]2cccc(O)c2[nH]1 | inactive: 0.959 |
| CO[C@@H](CN(C)C(=O)Nc1ccc(C(F)(F)F)cc1)[C@H](C)CN(Cc1ccccc1Cl)[C@H](C)CO | inactive: 1.01 |
| CCN1CCN(C(=O)NC(C(=O)NC2C(=O)N3C2SC(C)(C)C3C(=O)[O-])c2ccccc2)C(=O)C1=O.[Na+] (configuration not stated) | active: 0.0465 |
| Cc1ccc(S(=O)(=O)N(C)C[C@@H]2OCCCC[C@@H](C)Oc3ccc(NS(C)(=O)=O)cc3C(=O)N([C@H](C)CO)C[C@H]2C)cc1 | inactive: 0.999 |
| COC(=O)c1c(CC[C@@H](CO)NC(=O)N[C@@H](Cc2ccccc2)Cn2cc(-c3cncn3C)nn2)oc(C(C)=O)c1C(=O)OC | inactive: 1.04 |
| CN1C(=O)c2cc(NC(=O)c3cnccn3)ccc2OC[C@H]2O[C@H](CC(=O)N[C@H]3CCN(Cc4ccccc4)C3)CC[C@@H]21 | inactive: 0.976 |
| C[C@H]1COC(=O)[C@@H](Cc2ccc(F)cc2)CC=CC[C@@H](CC(=O)N[C@H](CO)Cc2ccccc2)C(=O)N1 | inactive: 0.982 |
| C[C@H]1CN([C@@H](C)CO)C(=O)c2cc(Br)cnc2O[C@H]1CN(C)Cc1ccccc1C(=O)O | inactive: 1.01 |
| COCC(=O)Nc1ccc2c(c1)C(=O)N(C)[C@H]1CC[C@@H](CC(=O)N3CCc4ccccc4C3)O[C@@H]1CO2 | inactive: 1 |
| COc1ccc(CN(C)C[C@H]2OCCCC[C@@H](C)Oc3ccc(NC(=O)Nc4ccc5c(c4)OCO5)cc3C(=O)N([C@@H](C)CO)C[C@@H]2C)cc1 | inactive: 0.974 |
| CC(C)(C)[C@H]1COC(=O)[C@@H](NC(=O)OCC2c3ccccc3-c3ccccc32)CC=CC[C@H](CC(=O)NCCO)C(=O)N1 | inactive: 1.02 |
| C[C@@H]1CN([C@H](C)CO)C(=O)c2cc(NS(C)(=O)=O)ccc2O[C@@H]1CN(C)S(=O)(=O)c1cccs1 | inactive: 1.03 |
| O=C(C[C@H]1CC[C@@H]2[C@H](COC[C@H](O)CN2C(=O)c2ccncc2)O1)NCc1ccc(-c2ccccc2)cc1 | inactive: 1.02 |
| C[C@@H]1CN([C@H](C)CO)C(=O)c2cc(NS(=O)(=O)c3ccccc3)ccc2O[C@@H](C)CCCCO[C@@H]1CN(C)S(=O)(=O)c1cn(C)cn1 | inactive: 1.05 |
| CC(C)(C)OC(=O)N1CC(C(=O)O)C1 | inactive: 0.971 |
| Cc1ccc(S(=O)(=O)N2C[C@@H](O)COC[C@H]3O[C@H](CC(=O)NCc4cccc(C(F)(F)F)c4)CC[C@@H]32)cc1 | inactive: 1.01 |
| C[C@@H]1CN([C@H](C)CO)C(=O)c2cc(NS(C)(=O)=O)ccc2O[C@@H](C)CCCCO[C@H]1CN(C)C(=O)Nc1ccc(C(F)(F)F)cc1 | inactive: 0.887 |
| C[C@@H]1CN([C@@H](C)CO)C(=O)c2cc(NS(C)(=O)=O)ccc2O[C@@H]1CN(C)Cc1ccc(C(F)(F)F)cc1 | inactive: 0.996 |
| C#CC[C@H](c1nc2cc(Cl)ccc2c(=O)n1Nc1ccccc1)N(CCCN)C(=O)c1cccc(Cl)c1F | inactive: 0.987 |

| Compound | relative growth |
| --- | --- |
| C[C@H](CO)N1C[C@H](C)[C@H](CN(C)C(=O)CCCN(C)C)OCCCC[C@H](C)Oc2ccc(NC(=O)Nc3ccc(C(F)(F)F)cc3)cc2C1=O | inactive: 0.964 |
| COc1ccc(S(=O)(=O)N(C)C[C@@H]2Oc3cc(C4=CCCC4)ccc3S(=O)(=O)N([C@H](C)CO)C[C@H]2C)cc1 | inactive: 0.999 |
| CC(C)NC(=O)Nc1ccc2c(c1)C(=O)N([C@@H](C)CO)C[C@@H](C)[C@H](CN(C)S(=O)(=O)c1cn(C)cn1)OCCCC[C@@H](C)O2 | inactive: 0.98 |
| COc1ccc2c3c(n(c2c1)C)[C@H](CO)N(C[C@]13CCN(CC1)C(=O)Nc1cccc(c1)F)S(=O)(=O)C | inactive: 0.983 |
| CC(C)CC#Cc1ccc2c(c1)O[C@H](CN(C)Cc1cncnc1)[C@@H](C)CN([C@H](C)CO)S2(=O)=O | inactive: 0.994 |
| C[C@H](CO)N1C[C@H](C)[C@@H](CN(C)S(=O)(=O)c2cccs2)OCCCC[C@H](C)Oc2ccc(NC(=O)NC3CCCCC3)cc2C1=O | inactive: 1.03 |
| C[C@@H]1CN([C@H](C)CO)C(=O)c2cccc(NS(C)(=O)=O)c2O[C@H]1CN(C)S(=O)(=O)c1ccc(F)cc1 | inactive: 1.01 |
| COc1ccc(S(=O)(=O)N(C)C[C@H]2Oc3ccc(NS(C)(=O)=O)cc3CC(=O)N([C@@H](C)CO)C[C@@H]2C)cc1 | inactive: 0.916 |
| C=CCNC(=O)[C@H]1[C@@H]2C(=O)O[C@@H](c3ccccc3)[C@@H](c3ccccc3)N2[C@@H](c2ccc(O)cc2)[C@]12C(=O)N(C(=O)OCCOC)c1ccc(C#CC3=CCCCC3)cc12 | inactive: 1.06 |
| C[C@@H]1CN([C@@H](C)CO)C(=O)c2cc(NC(=O)CCCN(C)C)ccc2O[C@H]1CN(C)S(=O)(=O)c1cn(C)cn1 | inactive: 1 |
| C[C@H]1CCCCO[C@H](CN(C)Cc2ccc(C(=O)O)cc2)[C@@H](C)CN([C@@H](C)CO)C(=O)c2cc(NC(=O)Nc3ccccc3)ccc2O1 | inactive: 1 |
| C[C@H](CO)N1C[C@H](C)[C@@H](CN(C)Cc2ccc3c(c2)OCCN3C)OCc2cnnn2CCCC1=O | inactive: 0.994 |
| C[C@@H]1CCCCO[C@H](CN(C)C(=O)c2ccccc2)[C@@H](C)CN([C@H](C)CO)C(=O)c2cc(NC(=O)Cc3ccccc3)ccc2O1 | inactive: 0.993 |
| C[C@@H]1CN([C@@H](C)CO)C(=O)c2cc(NC(=O)Nc3ccccc3)ccc2O[C@@H](C)CCCCO[C@@H]1CN(C)Cc1ccncc1 | inactive: 0.965 |
| C[C@@H]1CN([C@H](C)CO)C(=O)c2cccc(NC(=O)c3ccncc3)c2O[C@@H]1CN(C)S(=O)(=O)c1ccccc1 | inactive: 0.979 |
| O=C(C[C@H]1CC[C@@H]2[C@H](COC[C@@H](O)CN2C(=O)Nc2ccc(Cl)c(Cl)c2)O1)NCc1ccc(Cl)c(Cl)c1 | inactive: 0.971 |
| O=C(OC[C@H]1O[C@@H](OC(=O)c2cc(O)c(O)c(O)c2)[C@H](OC(=O)c2cc(O)c(O)c(O)c2)[C@@H](OC(=O)c2cc(O)c(O)c(O)c2)[C@@H]1OC(=O)c1cc(O)c(O)c(O)c1)c1cc(O)c(O)c(O)c1 | inactive: 0.537 |
| Cc1ccc(S(=O)(=O)Nc2ccc3c(c2)C(=O)N([C@@H](C)CO)C[C@H](C)[C@@H](CN(C)C(=O)CCC(F)(F)F)OCCCC[C@H](C)O3)cc1 | inactive: 0.979 |
| C[C@H]1CCCCO[C@H](CN(C)CC2CCCCC2)[C@@H](C)CN([C@@H](C)CO)C(=O)c2cc(NC(=O)Cc3ccccc3)ccc2O1 | inactive: 0.995 |
